Measurements reported in the supplement of paper PMC6531468.
Some of the results follow. Values come from read counts of a selection and are noisy. Scores sum up all selected molecules that hold the word; the word was not tested alone.

Tests used:
Assay in all cases: 6-mer SELEX enrichment z-score vs GST control; IMP3 is the RNA-binding protein IGF2BP3; higher = more enriched by binding
IMP3 KH1-4 = details: construct: KH1-4 (164-579); SELEX round: R4
Method: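 SELEX-seq with GST-tagged IMP3 KH1-4 (Pro164-Lys579) and an N40 RNA pool, round 4. 6-mer z-score of sequence-tag enrichment normalised to the corresponding GST SELEX round; RNA k-mers written as DNA (T for U).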

IMP3 RRM1-2 = details: construct: RRM1-2 (1-163); SELEX round: R2
Chain of IMP3 RRM1-2 (chain, as listed by the source): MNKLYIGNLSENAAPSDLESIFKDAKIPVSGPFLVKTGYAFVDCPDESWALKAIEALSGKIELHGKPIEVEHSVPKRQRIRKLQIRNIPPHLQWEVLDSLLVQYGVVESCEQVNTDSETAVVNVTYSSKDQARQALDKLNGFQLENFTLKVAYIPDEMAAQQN
Method: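 SELEX-seq with GST-tagged IMP3 RRM1-2 (Met1-Asn163) and an N40 RNA pool, round 2. 6-mer enrichment z-score normalised to GST SELEX. RNA written as DNA (T = U).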

IMP3 full-length = IMP3 full-length (UniProt O00425); details: construct: FL IMP3 (1-579); SELEX round: R4
Chain of UniProt O00425 (O00425 whole entry): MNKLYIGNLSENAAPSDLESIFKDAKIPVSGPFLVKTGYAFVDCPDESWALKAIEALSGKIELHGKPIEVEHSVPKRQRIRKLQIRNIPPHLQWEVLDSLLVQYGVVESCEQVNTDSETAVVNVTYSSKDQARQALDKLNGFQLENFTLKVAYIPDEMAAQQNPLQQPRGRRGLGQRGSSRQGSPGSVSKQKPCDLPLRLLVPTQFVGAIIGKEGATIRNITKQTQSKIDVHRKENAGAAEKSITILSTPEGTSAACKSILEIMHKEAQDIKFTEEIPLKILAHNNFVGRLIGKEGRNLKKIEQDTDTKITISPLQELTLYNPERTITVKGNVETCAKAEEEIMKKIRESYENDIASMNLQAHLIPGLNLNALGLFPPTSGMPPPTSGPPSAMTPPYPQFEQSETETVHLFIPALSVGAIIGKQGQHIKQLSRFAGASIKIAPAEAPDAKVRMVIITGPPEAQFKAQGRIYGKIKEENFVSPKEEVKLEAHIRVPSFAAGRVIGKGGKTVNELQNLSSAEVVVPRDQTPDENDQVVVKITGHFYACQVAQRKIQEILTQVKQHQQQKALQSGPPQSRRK
Method: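 SELEX-seq with GST-tagged full-length IMP3 and an N40 RNA pool, round 4. Each 6-mer is scored as an enrichment z-score of sequence tags containing it, normalised to the matching GST SELEX round. RNA written as DNA (T = U).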

IMP3 KH1-2 = details: construct: KH1-2 (164-376); SELEX round: R4
Chain of IMP3 KH1-2 (chain, as listed by the source): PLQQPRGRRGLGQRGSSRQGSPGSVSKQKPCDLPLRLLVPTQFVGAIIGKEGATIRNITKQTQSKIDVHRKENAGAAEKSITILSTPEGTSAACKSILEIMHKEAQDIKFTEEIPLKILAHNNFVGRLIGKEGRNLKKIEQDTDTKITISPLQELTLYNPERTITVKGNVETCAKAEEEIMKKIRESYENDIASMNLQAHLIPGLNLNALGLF
Method: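 SELEX-seq with GST-tagged IMP3 KH1-2 (Pro164-Phe376) and an N40 RNA pool, round 4 (stringent 300/600 mM KCl washes). 6-mer z-score of sequence-tag enrichment normalised to the corresponding GST SELEX round; RNA k-mers written as DNA (T for U).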

IMP3 KH3-4 = details: construct: KH3-4 (377-579); SELEX round: R4
Chain of IMP3 KH3-4 (chain, as listed by the source): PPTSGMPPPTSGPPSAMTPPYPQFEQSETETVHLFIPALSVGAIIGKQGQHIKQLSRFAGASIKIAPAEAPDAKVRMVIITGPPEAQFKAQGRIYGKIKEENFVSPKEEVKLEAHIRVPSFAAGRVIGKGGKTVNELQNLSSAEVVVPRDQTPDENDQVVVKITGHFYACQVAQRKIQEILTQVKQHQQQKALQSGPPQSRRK
Method: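 SELEX-seq with GST-tagged IMP3 KH3-4 (Pro377-Lys579) and an N40 RNA pool, round 4. 6-mer z-score of sequence-tag enrichment normalised to the corresponding GST SELEX round; RNA k-mers written as DNA (T for U).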

Chain of IMP3 KH1-4 (chain, as listed by the source): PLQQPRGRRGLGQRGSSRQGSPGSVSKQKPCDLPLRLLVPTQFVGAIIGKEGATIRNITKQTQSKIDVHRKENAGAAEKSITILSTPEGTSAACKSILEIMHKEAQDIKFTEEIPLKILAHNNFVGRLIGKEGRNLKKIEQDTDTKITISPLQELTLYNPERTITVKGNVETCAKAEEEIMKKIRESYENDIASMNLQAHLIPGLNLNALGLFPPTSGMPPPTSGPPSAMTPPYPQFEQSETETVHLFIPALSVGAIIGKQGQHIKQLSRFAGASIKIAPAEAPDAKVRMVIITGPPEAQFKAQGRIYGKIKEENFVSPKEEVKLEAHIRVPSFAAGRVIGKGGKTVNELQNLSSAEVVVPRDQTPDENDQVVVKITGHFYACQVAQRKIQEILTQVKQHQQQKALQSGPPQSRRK

Row | Sequence | 6-mer SELEX enrichment z-score (IMP3 KH1-4) | 6-mer SELEX enrichment z-score (IMP3 RRM1-2) | 6-mer SELEX enrichment z-score (IMP3 full-length) | 6-mer SELEX enrichment z-score (IMP3 KH1-2) | 6-mer SELEX enrichment z-score (IMP3 KH3-4)
1 | GCGGGC | -0.249 | 0.056 | 1.01 | 0.035 | 0.051
2 | GTGGCT | 0.151 | 0.289 | 0.336 | 0.209 | 0.332
3 | GCTCGC | -0.15 | 0.282 | 0.44 | 0.014 | -0.187
4 | AGCTCT | -0.241 | 0.29 | 0.04 | -0.146 | -0.122
5 | GCCATC | 0.278 | 0.594 | 1.01 | 0.111 | -0.242
6 | ACCAAT | 0.011 | 0.277 | -0.323 | -0.056 | -0.413
7 | CTACAC | 0.75 | 1.02 | 0.509 | 0.964 | 0.108
8 | GGATGT | 0.478 | 0.022 | 0.08 | 0.391 | 0.573
9 | CGACTC | -0.902 | -0.35 | -0.55 | -0.836 | -1.2
10 | GCGTGT | -1.07 | 0.18 | -0.506 | -0.955 | -0.789
11 | AACGGC | 1.16 | -0.356 | 1.63 | 0.531 | 1.04
12 | CTACTC | -0.636 | 0.074 | -0.457 | -0.534 | -0.669
13 | AGGTCA | 0.367 | 0.158 | 0.581 | 0.174 | 0.365
14 | GTGACA | 0.388 | -0.394 | 0.362 | 0.139 | 0.154
15 | CAATTC | 0.815 | 0.956 | 1.08 | 0.813 | 0.361
16 | ACGATA | 0.865 | -1.06 | -0.196 | 0.792 | 1.25
17 | AATGAC | 0.645 | -1.33 | -0.77 | 0.384 | 0.98
18 | ATTTGC | 0.675 | 0.12 | 0.038 | 0.502 | 0.639
19 | AACGTA | -1.74 | -1.07 | -1.52 | -1.78 | -1.51
20 | TACGCG | -0.176 | -0.104 | -0.052 | -0.181 | -0.056
21 | CCGATA | -0.162 | -0.983 | -0.533 | -0.028 | -0.307
22 | ATGCCC | -1.39 | -0.611 | -1.32 | -1.16 | -1.73
23 | CAATAG | 0.631 | 0.221 | 0.757 | 0.834 | 0.726
24 | CGTGAG | -0.703 | -0.271 | -0.308 | -0.596 | -0.561
25 | CGCCTT | -0.24 | 0.014 | -0.236 | -0.145 | -0.299
